Measurements as given in publication PMC4336329 (PLoS ONE, 2015).
Out of some 310,000 compounds screened, about 14,000 (4.5%) showed an effect of 50% or more. The effect is printed as a negative number. This is one part of the list.

Molecular target: human ether-à-go-go-related gene (hERG) potassium channel (human, UniProt Q12809)
Assay: primary screen, population patch clamp on CHO cells stably expressing hERG
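Also: peak tail current of the secondary pulse compared with the same well before compound.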

Chain of human ether-à-go-go-related gene (hERG) potassium channel (Q12809 whole entry, looked up): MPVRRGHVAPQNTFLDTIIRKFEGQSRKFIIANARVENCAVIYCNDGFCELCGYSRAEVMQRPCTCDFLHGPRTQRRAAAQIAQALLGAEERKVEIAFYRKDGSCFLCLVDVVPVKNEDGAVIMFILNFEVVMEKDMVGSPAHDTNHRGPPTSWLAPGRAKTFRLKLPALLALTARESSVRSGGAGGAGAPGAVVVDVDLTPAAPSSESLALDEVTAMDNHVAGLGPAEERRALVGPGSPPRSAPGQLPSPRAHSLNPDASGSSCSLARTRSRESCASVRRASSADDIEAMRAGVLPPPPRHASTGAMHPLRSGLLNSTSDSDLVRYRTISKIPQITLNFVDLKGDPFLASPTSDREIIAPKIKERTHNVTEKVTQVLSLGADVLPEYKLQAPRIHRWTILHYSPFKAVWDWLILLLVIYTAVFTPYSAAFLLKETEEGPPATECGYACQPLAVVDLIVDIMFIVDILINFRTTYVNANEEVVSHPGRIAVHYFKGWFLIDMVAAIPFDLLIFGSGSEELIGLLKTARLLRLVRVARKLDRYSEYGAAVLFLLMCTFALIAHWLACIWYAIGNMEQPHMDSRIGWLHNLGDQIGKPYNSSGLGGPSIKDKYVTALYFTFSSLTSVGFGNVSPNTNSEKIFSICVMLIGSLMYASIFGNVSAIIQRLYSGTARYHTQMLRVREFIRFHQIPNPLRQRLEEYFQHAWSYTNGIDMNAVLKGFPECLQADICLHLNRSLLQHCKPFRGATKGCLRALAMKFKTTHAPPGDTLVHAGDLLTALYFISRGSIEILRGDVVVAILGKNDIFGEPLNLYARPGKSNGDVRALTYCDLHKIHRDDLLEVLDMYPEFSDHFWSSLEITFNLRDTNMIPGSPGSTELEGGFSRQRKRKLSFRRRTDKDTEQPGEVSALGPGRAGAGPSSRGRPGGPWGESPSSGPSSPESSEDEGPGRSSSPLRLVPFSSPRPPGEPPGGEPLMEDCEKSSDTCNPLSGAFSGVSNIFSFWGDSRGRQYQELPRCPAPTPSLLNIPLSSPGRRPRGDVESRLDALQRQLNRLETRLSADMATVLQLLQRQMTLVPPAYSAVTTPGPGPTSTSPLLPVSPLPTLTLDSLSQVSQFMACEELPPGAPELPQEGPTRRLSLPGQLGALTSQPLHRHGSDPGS

SMILES	hERG current change (%, negative = inhibition) at 10uM [%]
CCOc1ccc2nc(NC(=O)CSc3cn[nH]n3)sc2c1	-2.2
COC(=O)[C@@H]1C[C@@]2(O)[C@H](O)[C@H](O)[C@H](O)C[C@H]2N1Cc1ccc(-c2ccccc2)cc1	14.5
Cl.OCCNCc1cccc(Br)c1	-1.31
COC(=O)CNC(=O)C(C)(C)Oc1ccc(Cl)cc1	-1.56
COC(=O)Nc1ncc(CN2C(=O)c3ccccc3C2=O)s1	-23
COc1ccccc1CCC(=O)OCC(=O)NC1CC1	7.29
O=S(=O)(c1ccc(Oc2ccc3oc4ccccc4c3c2)nc1)N1CCCC1	-4.38
CC1CCN(C(=O)C2CCCN2S(=O)(=O)c2ccc(Cl)cc2)CC1 (centres unmarked)	8.47
CCOc1ccc(S(=O)(=O)N(C)c2ccc(OCC(=O)NCc3ccc(C(=O)OC)cc3)cc2)cc1	-23.9
Cc1cc(C(=O)N2CCN(S(C)(=O)=O)CC2)sc1-c1ccccc1	9.81
CC(C)(O)C#Cc1ccc(CN2CCN(Cc3ccsc3)C(CCO)C2)cc1 (centres unmarked)	-21.6
COC(=O)c1cc2occc2n1Cc1nc(-c2ccccc2F)oc1C	8.86
O=C(O)C(F)(F)F.O=C1C(Cc2ccccc2)Nc2ncnc(N3CCc4ccccc4C3)c2N1Cc1ccc(Cl)cc1 (centres unmarked)	10
Cc1cccc2cc(C(c3nnnn3Cc3ccccc3)N3CCN(c4ccccc4)CC3)c(=O)[nH]c12 (centres unmarked)	-29.1
CC/C(=N/NC(=O)CNc1ccc(Cl)cc1C)c1ccccc1	8.15
Cc1cc(C(=O)O)ccc1-n1c(C)ccc1C	4.49
CCOC(=O)c1ccc(NC(=O)C23CCC(C)(C(=O)O2)C3(C)C)cc1 (centres unmarked)	-6.49
O=C(COC(=O)c1ccc(Br)cc1)NCc1ccccc1	13.8
O=C(CSc1nc(N2CCCCC2)nc(N2CCCCC2)n1)c1ccccc1	-2.16
COc1ccc(C2(c3ccc(OC)cc3)NC(=O)N(CC(=O)Nc3ccc(N4CCOCC4)cc3)C2=O)cc1	-3.27
CN(CCCCCCN(C)Cc1ccccc1O)Cc1ccccc1O.O=C(O)C(=O)O	5.09
C=CCSc1nnc(-c2cc3c(C(F)(F)F)nn(C)c3s2)n1C	-3.85
CCCCNC(=O)CSc1nc2ccccc2c(=O)n1CCNC(C)=O	-12.3
